We go through 20 variants from the RNAGym collection of RNA variant scans (doi:10.7554/elife.90254).

The source gives no read counts; variants with many changes may rest on few reads.

To fix the notation:
B1: LINE1-full (parent)
chain: UACGUAGGUGGUUUUCCCCUGAUAGUGCUAAGGGGGCCUGGAAGUUUGGACUGGGCAGAGCUCAACACAGCGUGGCAAAGUGGCUGUGGCUAGACUGCCUCUCUGGAUUCCUCGUCACUCAGCAGGGCAUCUCUGAGAGAAAUGCC

This data set covers variants of B1. In words: self-cleavage, relative activity (ratio to wild type); higher = more cleavage; in vitro, sequencing; the parent is a self-cleaving ribozyme.
For the variant UACGUAGGUGGUUUUCCCCUGAUAGUGCUAAGGGGGCCUGGAAGUUUGGACAGGGCAGAGCUCAACACGGCGUGGCAAAGUGGCUGUGGCUAGGCUGCCUCUCUGGAUUCCUCGUCACUCAGCAGGGCAUCUCUGAGAGAAAUGCC [U52A A69G A94G], the self-cleavage was 0.18. With UACGUAGGUGGUUUUCCCCUGAUAGUGCUAAGGGGGCCUGGAAGUUUGGACAGGGCAGAGCACAACACAGCGUGGCAAGGUGGCUGUGGCUAGACUGCCUCUCUGGAUUCCUCGUCACUCGGCAGGGCAUCUCUGAGAGAAAUGCC [U52A U62A A79G A121G], the self-cleavage was 0.09. For UACGUAGGUGGUUUUCCCCUGAUAGUGCUAAGGGGGCCUGGAAGUUUGGACAGGGCAGAGCCCAACACAGCGUGGCAAAGUGGCGGUGACUAGACUGCCUCUCUGGAUUCCUCGUCACUCAGCAGGGCAUCUCUGAGAGAAAUGCC [U52A U62C U85G G89A], the self-cleavage came to 0.02.

For UACGUAGGUGGUUUUCCCCUGAUAGUGCUAAGGGGGCCUGGAAGUUUGGACAGGGCAGAGCUCAACACAGCGUGGCAGAGUGGCUGUGGCCAGACUGCCUCUCUGGAUUCCUCGUCACUCAGCAGGGCAUCUCUGAGAGAAAUGCC [U52A A78G U91C], the self-cleavage stood at 0.47. The result for UACGUAGGUGGUUUUCCCCUGAUAGUGCUAAGGGGGCCUGGAAGUUUGGACAGGACAGAGCUCAACACAGCGUGGCAAAGUGGCUGUGGCAAGACUGCCUCUCUGGAUUCCUCGUCACUCAGCAGGGCAUCUCUGAGAGAAAUGCC [U52A G55A U91A] reads 0.11; that for UACGUAGGUGGUUUUCCCCUGAUAGUGCUAAGGGGGCCUGGAAGUUUGGACAGGGCAGAGCUCAACACAGCGUGGCACAGUGGCUGUGGCUAGACUGCCUCUCUGGAUUCCUCGUCACUCAGCAGGGCAUCUCUGAGAGGAAUGCC [U52A A78C A140G], 2.08; that for UACGUAGGUGGUUUUCCCCUGAUAGUGCUAAGGGGGCCUGGAAGUUUGGACAGGGCAGAGCUCAACACAGCGUGGCAGAGUGGCUGUGGCUAGACUGCCUCUCUGGAUUCCUCGUCACUCAGCAGGGCAUCUCUGAGAGAAAAGCC [U52A A78G U143A], 1.15. For the variant UACGUAGGUGGUUUUCCCCUGAUAGUGCUAAGGGGGCCUGGAAGUUUGGACAGGGCAGAGCUCAAUACAGCGUGGCAAAGUGGCUGUGGCUAGACUGCCUCUCUGGAUUCCUCGUCACUCAGCGGGGCAUCUCUGAGAGAAAUGCC [U52A C66U A124G], the self-cleavage was found to be 0.06.

With UACGUAGGUGGUUUUCCCCUGAUAGUGCUAAGGGGGCCUGGAAGUUUGGACAGGGCAGAGCUCAACACAGCGUGGCAAAGUGGCUGUGGCUAGACUGCCUCUCUGGAUUCCUCGUCACUCAGCAGGGCAUCUCUGAGGGAGAUGCC [U52A A138G A141G], the self-cleavage is 2.04. UACGUAGGUGGUUUUCCCCUGAUAGUGCUAAGGGGGCCUGGAAGUUUGGACAGGGCAGAGCUCAACACAGCGUGGCAAAGUGGCUGUGGUUAGACUGCCUCUCUGGAUUCCUCGUCACUCAGCUGGGCAUCUCUGAGAGAAAUGCC [U52A C90U A124U]: the self-cleavage worked out at 0.06.

Consider UACGUAGGUGGUUUUCCCCUGAUAGUGCUAAGGGGGCCUGGAAGUUUGGACAGGGCAGAGCCCAACACAGCGUGGCAAAGUGGCUGUGGCUGGACUGCCUCUCUGUAUUCCUCGUCACUCAGCAGGGCAUCUCUGAGAGAAAUGCC [U52A U62C A92G G106U], for which the self-cleavage stood at 0.01.

Regarding UACGUAGGUGGUUUUCCCCUGAUAGUGCUAAGGGGGCCUGGAAGUUUGGACAGGGCAGAGCUCAACACAGCGUGGCAAAGUGGCUGUGGCUAGACUGCCUCUCUGGAUUCCUCGUCACUCAGCAGGGCAUCUCUGAGUGAGAUGCC [U52A A138U A141G], the self-cleavage stood at 1.56.

As to UACGUAGGUGGUUUUCCCCUGAUAGUGCUAAGGGGGCCUGGAAGUUUGGACAGGGCAGAGCACAACACAGCGUGGCAAAGUGGCUGUGGCUAGACAGCCUCUCUGGACUCCUCGUCACUCAGCAGGGCAUCUCUGAGAGAAAUGCC [U52A U62A U96A U108C], the self-cleavage amounted to 0.03.

With UACGUAGGUGGUUUUCCCCUGAUAGUGCUAAGGGGGCCUGGAAGUUUGGACAGGGCAGAGCUCAACACAGCGUGGCAAAGUGGCUGUGGCUAGACUGCCUCUCUGGAUUCCUCGUCACUCGGCAGGGCAUCUCUGAGAGAAAUACC [U52A A121G G144A], the self-cleavage worked out at 1.5.

With UACGUAGGUGGUUUUCCCCUGAUAGUGCUAAGGGGGCCUGGAAGUUUGGACAGGGCAGAGCUCAACACAGCGCGGCAAAGUGGCUGUGGCUAGACUGCCUCUCUGGAUUCCUCGUCACUAAGCCGGGCAUCUCUGAGAGAAAUGCC [U52A U73C C120A A124C], the self-cleavage was determined as 2.84. The same measure for UACGUAGGUGGUUUUCCCCUGAUAGUGCUAAGGGGGCCUGGAAGUUUGGACAGGGCAGAGCUCAACACAGCGUGGCAAGGUGGCUGUGGCUAGACUGCCUCUCUGGAUUCCUCGUCACUCAGCAGGGCACCUCUGAGAGAAAUGCC [U52A A79G U130C]: 1.16; for UACGUAGGUGGUUUUCCCCUGAUAGUGCUAAGGGGGCCUGGAAGUUUGGACAGGGCAGAGCUCAACACGGCGUGGCAAAGUGGCUGUGGCUGGACUGCCUCUCUGGAUUCCUCGUCACUCAGCAGGGCAUCUCUGAGAGAAAUGCC [U52A A69G A92G]: 0; for UACGUAGGUGGUUUUCCCCUGAUAGUGCUAAGGGGGCCUGGAAGUUUGGACAGGGCAGAGCUCAACACAGCGUGGCAAAGUGGCUGUGGCUAGACUGCCUCUCUGGAUUCCUCGUCACUCAGCUGGGCAUCUCUGGGAGAAAUGCC [U52A A124U A136G]: 1.49. Turning to UACGUAGGUGGUUUUCCCCUGAUAGUGCUAAGGGGGCCUGGAAGUUUGGACAGGGCAGAGCUCAACACAGCGUGGCAAAGUGGCUGUGGCUAGUCUGCCUCUCUGGGUUCCUCGUCACUCAGCAGUGCAUCUCUGAGAGAAAUGCC [U52A A94U A107G G126U], the self-cleavage stood at 0.41. As for UACGUAGGUGGUUUUCCCCUGAUAGUGCUAAGGGGGCCUGGAAGUUUGGACAGGGCAGAGCUCAACACAGCGUGGCAAAGUGGCUGUGGCUGGUCUGCCUCCCUGGAUUCCUCGUCUCUCAGCAGGGCAUCUCUGAGAGAAAUGCC [U52A A92G A94U U102C A117U], the self-cleavage turned out to be 0.14.
